The record followed here is the supplement of paper PMC11417369.

Some of the results follow.

For the experiment, the system named is PF3D7_0420300 AP2 domain 1 (GST-tagged). The experiment in a line: gcPBM binding intensity (ln(normalized median fluorescence intensity)); higher = stronger DNA binding. Put shortly:
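GST-tagged P. falciparum DNA-binding domains produced in E. coli were incubated for 1 h on an Agilent 4 × 180k array of primer-extended double-stranded 36-bp intergenic genomic probes with negative controls. Binding intensity is the highest Masliner-normalised natural-log median intensity across replicate spots of either probe orientation, with bound protein detected by Alexa488 anti-GST antibody at 488 nm.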
Turning to “ATTTTTTCTAATGGGTGTACTGAAACGTATTTTATT [XGTACX_site6573]”, the “gcPBM binding intensity (ln)” value came to 9.56.
For the sequence “ATTTGTAATTATTAAACACACACAAAATATATATAA [CACACA_site8804]”, the “gcPBM binding intensity (ln)” value amounted to 9.67.
Take “TTGTGATTATATAATCGTACATAATTTTAATCACAC [XGTACX_site398]”: the “gcPBM binding intensity (ln)” value was 9.15.
The result for “AAAAAAAAAAAAAACACACACATATCTATAATATAT [CACACA_site7481]” reads 9.86; that for “GAATATAAACATATTACACACATCTATATGTACTTT [CACACA_site8582]”, 9.68.
Turning to “CAAAACAAAGTTGCCGCACACAGATACGCACCCAAG [CACACA_site3455]”, the “gcPBM binding intensity (ln)” value came out at 9.5.
Take “TTTATTTAATTCATTGCATGTAATTTTTGTGTCCAC [TGCATGCA_site677]”: the “gcPBM binding intensity (ln)” value is 9.21.
As to “TTTTATGATAATTTTGCACACACTTAGGAAAAATTA [CACACA_site1556]”, the “gcPBM binding intensity (ln)” value came out at 9.31.
Turning to “TTAAAAAAAAATGGCACACATTTTAATTTTATGTTT [CACACA_site5035]”, the “gcPBM binding intensity (ln)” value was 9.01.
For the sequence “AGAATAAAAAGGAACACACACACACGCATATAAATA [CACACA_site7659]”, the “gcPBM binding intensity (ln)” value stood at 10.3.
On to “TTATCATATGTATGCATACACACAAAAAATTATATA [CACACA_site397]”, for which the “gcPBM binding intensity (ln)” value was 9.47.
The result for “CAAACAAATATATGTTGTACTTATTATATATACATA [XGTACX_site2998]” reads 9.26.
“ATAAATGAGCCATATTAAATCCGTTACACGGGTGTG [CACACA_negctrl_site1368]”: the “gcPBM binding intensity (ln)” value turned out to be 9.22.
Consider “AAATTATTTTGTTATCATTATATATAGATTGAATAT [XGTACX_negctrl_site165]”, for which the “gcPBM binding intensity (ln)” value came out at 9.11.
For the sequence “AACGGGTAATGCACAAAAAAAAAAAAATAAAATAAA [TGCATGCA_negctrl_site474]”, the “gcPBM binding intensity (ln)” value was 9.2.
“TTCTTTTAAATTAGCTGTACGGTTTTCTACATGCAT [XGTACX_site356]”: the “gcPBM binding intensity (ln)” value amounted to 9.23.
Take “AAAAAAAATATGAAAACACACATATATAAATAAATA [CACACA_site113]”: the “gcPBM binding intensity (ln)” value is 9.55.
On to “TAATATATATGTATGGCACACACGGATAAATATATA [CACACA_site930]”, for which the “gcPBM binding intensity (ln)” value is 9.57.
The result for CATGCCTTTAAAAAGGTGCAAACATTTTCACAAACA reads 9.05.
The result for “AACAAAATAAGACACACACACAAATGTACCTATATA [CACACA_site7189]” reads 10; that for “TCTTTTTTAAATAAAAGTACAAAAAAAAATAAAAAA [XGTACX_site2670]”, 9.07; that for “ATATAATTTATGTGCACACACTCCTATTTTTAGCTT [CACACA_site50]”, 9.72.
As for “AAAAAGTAAAAGAAAGCACACACACCGGTATATATG [CACACA_site9281]”, the “gcPBM binding intensity (ln)” value turned out to be 10.
Consider “AAAAAAAATTTTATCTGTACACATTTTTTTCTTTTT [XGTACX_site4229]”, for which the “gcPBM binding intensity (ln)” value was determined as 9.35.
Turning to TACAATATATTTATAGTGCATATTACTTTTAACTTT, the “gcPBM binding intensity (ln)” value turned out to be 9.29.
